Measured values from article PMC3103547.
Residue numbers refer to the chain shown, from its start. In names and notes the source's numbering stands. Results are given in words; binding and its absence hold for the method and conditions named. Some results given as binding are weak or reduced against the parent protein; the word gives no strength. Tags and fused reporters may be left off the sequences shown. Values belong to the binder of their own block, whether it stands above or below them.

Assays:
Experiment in all cases: native gel or EMSA; HEK cells 48 h after transfection, scraped into ice cold native gel buffer (0.62 mM Tris HCl pH 6.8, 10% glycerol), sonicated briefly; 7.5% native polyacrylamide gel, Western blot with anti-V5; upper region dimer, lower region monomer
[1] = molecular target: Spermine synthase (SMS), wild type, V5-tagged (human) (UniProt P52788)
[2] = molecular target: Spermine synthase (SMS) V132W, V5-tagged (human) (UniProt P52788)
[3] = molecular target: Spermine synthase (SMS) I150Q, V5-tagged (human) (UniProt P52788)
[4] = molecular target: Spermine synthase (SMS) G56D, V5-tagged (human) (UniProt P52788)
[5] = molecular target: Spermine synthase (SMS) I150D, V5-tagged (human) (UniProt P52788)
[6] = molecular target: Spermine synthase (SMS) G56W, V5-tagged (human) (UniProt P52788)
[7] = molecular target: Spermine synthase (SMS) I150R, V5-tagged (human) (UniProt P52788)
[8] = molecular target: Spermine synthase (SMS) I150E, V5-tagged (human) (UniProt P52788)
[9] = molecular target: Spermine synthase (SMS) V132D, V5-tagged (human) (UniProt P52788)
[10] = molecular target: Spermine synthase (SMS) V132G, V5-tagged (human) (UniProt P52788)
[11] = molecular target: Spermine synthase (SMS) I150T, V5-tagged (human) (UniProt P52788)
[12] = molecular target: Spermine synthase (SMS) G56L, V5-tagged (human) (UniProt P52788)
[13] = molecular target: Spermine synthase (SMS) V132Q, V5-tagged (human) (UniProt P52788)
[14] = molecular target: Spermine synthase (SMS) V132R, V5-tagged (human) (UniProt P52788)
[15] = molecular target: Spermine synthase (SMS) I150H, V5-tagged (human) (UniProt P52788)
[16] = molecular target: Spermine synthase (SMS) V132E, V5-tagged (human) (UniProt P52788)
[17] = molecular target: Spermine synthase (SMS) G56Y, V5-tagged (human) (UniProt P52788)

B2: Spermine synthase (SMS) V132W, V5-tagged (enzyme, UniProt P52788 1-366)
chain: MAAARHSTLDFMLGAKADGETILKGLQSIFQEQGMAESVHTWQDHGYLATYTNKNGSFANLRIYPHGLVLLDLQSYDGDAQGKEEIDSILNKVEERMKELSQDSTGRVKRLPPIVRGGAIDRYWPTADGRLWEYDIDEVVYDEDSPYQNIKILHSKQFGNILILSGDVNLAESDLAYTRAIMGSGKEDYTGKDVLILGGGDGGILCEIVKLKPKMVTMVEIDQMVIDGCKKYMRKTCGDVLDNLKGDCYQVLIEDCIPVLKRYAKEGREFDYVINDLTAVPISTSPEEDSTWEFLRLILDLSMKVLKQDGKYFTQGNCVNLTEALSLYEEQLGRLYCPVEFSKEIVCVPSYLELWVFYTVWKKAKP
binding [2]: binds

B4: Spermine synthase (SMS) G56D, V5-tagged (enzyme, UniProt P52788 1-366)
chain: B2 chain with G56D, W132V
binding [4]: no binding

B5: Spermine synthase (SMS) I150D, V5-tagged (enzyme, UniProt P52788 1-366)
chain: B2 chain with W132V, I150D
binding [5]: binds

B8: Spermine synthase (SMS) I150E, V5-tagged (enzyme, UniProt P52788 1-366)
chain: B2 chain with W132V, I150E
binding [8]: binds

B9: Spermine synthase (SMS) V132D, V5-tagged (enzyme, UniProt P52788 1-366)
chain: B2 chain with W132D
binding [9]: binds

B10: Spermine synthase (SMS) V132G, V5-tagged (enzyme, UniProt P52788 1-366)
chain: B2 chain with W132G
binding [10]: binds

B13: Spermine synthase (SMS) V132Q, V5-tagged (enzyme, UniProt P52788 1-366)
chain: B2 chain with W132Q
binding [13]: binds

B14: Spermine synthase (SMS) V132R, V5-tagged (enzyme, UniProt P52788 1-366)
chain: B2 chain with W132R
binding [14]: binds

B15: Spermine synthase (SMS) I150H, V5-tagged (enzyme, UniProt P52788 1-366)
chain: B2 chain with W132V, I150H
binding [15]: binds

B17: Spermine synthase (SMS) G56Y, V5-tagged (enzyme, UniProt P52788 1-366)
chain: B2 chain with G56Y, W132V
binding [17]: no binding

The remaining lines, values ahead:

binding [1]: binds
B1: Spermine synthase (SMS), wild type, V5-tagged (enzyme, UniProt P52788 1-366)
chain: B2 chain with W132V

binding [3]: binds
B3: Spermine synthase (SMS) I150Q, V5-tagged (enzyme, UniProt P52788 1-366)
chain: B2 chain with W132V, I150Q

binding [6]: no binding
B6: Spermine synthase (SMS) G56W, V5-tagged (enzyme, UniProt P52788 1-366)
chain: B2 chain with G56W, W132V

binding [7]: binds
B7: Spermine synthase (SMS) I150R, V5-tagged (enzyme, UniProt P52788 1-366)
chain: B2 chain with W132V, I150R

binding [11]: binds
B11: Spermine synthase (SMS) I150T, V5-tagged (enzyme, UniProt P52788 1-366)
chain: B2 chain with W132V, I150T

binding [12]: no binding
B12: Spermine synthase (SMS) G56L, V5-tagged (enzyme, UniProt P52788 1-366)
chain: B2 chain with G56L, W132V

binding [16]: binds
B16: Spermine synthase (SMS) V132E, V5-tagged (enzyme, UniProt P52788 1-366)
chain: B2 chain with W132E
